The list shows a part of the results.
How the values were obtained:
Test in all cases: glycan array binding signal (z-score within array); higher = stronger binding
Conditions in all cases: glycan notation: IUPAC condensed, linker removed
[1] = molecular target: Fuc(a1-2)[Gal(a1-3)]Gal(b1-4)GlcNAc(b1-2)Man(a1-3)[Fuc(a1-2)[Gal(a1-3)]Gal(b1-4)GlcNAc(b1-2)Man(a1-6)]Man(b1-4)GlcNAc(b1-4)GlcNAc
Method in brief: (§1)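 The binding signal is a Z-score computed within each array and averaged over linkers. Arrays of the same protein sequence at different concentrations or buffers were also averaged together. Data originate from 3228 arrays in the Consortium for Functional Glycomics database, kept only where the protein sequence was available.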

[2] = molecular target: Fuc(a1-2)[Gal(a1-3)]Gal(b1-4)[Fuc(a1-3)]GlcNAc
Method in brief: as §1

[3] = molecular target: Fuc(a1-2)[Gal(a1-4)]Gal(b1-4)GlcNAc
Method in brief: as §1

[4] = molecular target: Fuc(a1-2)[GalNAc(a1-3)]Gal
Method in brief: as §1

[5] = molecular target: Fuc(a1-2)[GalNAc(a1-3)]Gal(b1-3)GlcNAc
Method in brief: as §1

[6] = molecular target: Fuc(a1-2)[GalNAc(a1-3)]Gal(b1-3)GlcNAc(b1-2)Man(a1-3)[Fuc(a1-2)[GalNAc(a1-3)]Gal(b1-3)GlcNAc(b1-2)Man(a1-6)]Man(b1-4)GlcNAc(b1-4)GlcNAc
Method in brief: as §1

[7] = molecular target: Fuc(a1-2)[GalNAc(a1-3)]Gal(b1-4)Glc
Method in brief: as §1

[8] = molecular target: Fuc(a1-2)[GalNAc(a1-3)]Gal(b1-4)GlcNAc
Method in brief: as §1

[9] = molecular target: Fuc(a1-2)[GalNAc(a1-3)]Gal(b1-4)GlcNAc(b1-2)Man(a1-3)[GalNAc(a1-3)[Fuc(a1-2)]Gal(b1-4)GlcNAc(b1-2)Man(a1-6)]Man(b1-4)GlcNAc(b1-4)GlcNAc
Method in brief: as §1

[10] = molecular target: Fuc(a1-2)[GalNAc(a1-3)]Gal(b1-4)GlcNAc(b1-3)Gal(b1-4)GlcNAc
Method in brief: as §1

[11] = molecular target: Fuc(a1-2)[GalNAc(a1-3)]Gal(b1-4)GlcNAc(b1-3)Gal(b1-4)GlcNAc(b1-3)Gal(b1-4)GlcNAc
Method in brief: as §1

[12] = molecular target: Fuc(a1-2)[GalNAc(a1-3)]Gal(b1-4)[Fuc(a1-3)]GlcNAc
Method in brief: as §1

[13] = molecular target: Fuc(a1-2)[GalNAc(a1-4)]Gal(b1-4)GlcNAc
Method in brief: as §1

[14] = molecular target: Fuc(a1-2)[GalNAc(b1-3)]Gal
Method in brief: as §1

Fuc(a1-3)GlcNAc = molecular target: Fuc(a1-3)GlcNAc
Method in brief: as §1

[15] = molecular target: Fuc(a1-3)[Gal(b1-4)]Glc6S
Method in brief: as §1

[16] = molecular target: Fuc(a1-3)[Gal(b1-4)]GlcNAc
Method in brief: as §1

[17] = molecular target: Fuc(a1-3)[Gal(b1-4)]GlcNAc(b1-2)Man(a1-3)[Fuc(a1-3)[Gal(b1-4)]GlcNAc(b1-2)Man(a1-6)]Man(b1-4)GlcNAc(b1-4)GlcNAc
Method in brief: as §1

[18] = molecular target: Fuc(a1-3)[Gal(b1-4)]GlcNAc(b1-2)Man(a1-6)[Gal(b1-4)GlcNAc(b1-2)Man(a1-3)]Man(b1-4)GlcNAc(b1-4)GlcNAc
Method in brief: as §1

[19] = molecular target: Fuc(a1-3)[Gal(b1-4)]GlcNAc(b1-3)Gal(b1-3)[Fuc(a1-4)]GlcNAc
Method in brief: as §1

[20] = molecular target: Fuc(a1-3)[Gal(b1-4)]GlcNAc(b1-4)Gal(b1-4)[Fuc(a1-3)]GlcNAc
Method in brief: as §1

[21] = molecular target: Fuc(a1-3)[Gal(b1-4)]GlcNAc(b1-4)Gal(b1-4)[Fuc(a1-3)]GlcNAc(b1-4)Gal(b1-4)[Fuc(a1-3)]GlcNAc
Method in brief: as §1

[22] = molecular target: Fuc(a1-3)[Gal(b1-4)]GlcNAc6S
Method in brief: as §1

[23] = molecular target: Fuc(a1-3)[Gal3S(b1-4)]Glc6S
Method in brief: as §1

[24] = molecular target: Fuc(a1-3)[Gal3S(b1-4)]GlcNAc
Method in brief: as §1

[25] = molecular target: Fuc(a1-3)[Gal3S(b1-4)]GlcNAc6S
Method in brief: as §1

[26] = molecular target: Fuc(a1-3)[GalNAc(b1-4)]GlcNAc
Method in brief: as §1

Fuc(a1-4)GlcNAc = molecular target: Fuc(a1-4)GlcNAc
Method in brief: as §1

Fuc(b1-3)GlcNAc = molecular target: Fuc(b1-3)GlcNAc
Method in brief: as §1

Gal(a1-2)Gal = molecular target: Gal(a1-2)Gal
Method in brief: as §1

B1: DETC sTCR (Mus musculus) (protein)
chain: LDVYLEPVAKTFTVVAGDPASFYCTVTGGDMKNYHMSWYKKNGTNALFLVYKLNSNSTDGGKSNLKGKINISKNQFILDIQKATMKDAGTYYCGSDIGGSSWDTRQMFFGTGIELFVEPKSQPPAKPSVFIMKNGTNVACLVKDFYPKEVTISLRSSKKIVEFDPAIVISPSGKYSAVKLGQYGDSNSVTCSVQHNSETVHSTDFEPYANSFNNEKLPEPENDTQISEPCSSADLVPRGSTTAPSAQLKKKLQALKKKNAQLKWKLQALKKKLAQHHHHHHDSWISQDQLSFTRRPNKTVHISCKLSGVPLHNTIVHWYQLKEGEPLRRIFYGSVKTYKQDKSHSRLEIDEKDDGTFYLIINNVVTSDEATYYCACWDSSGFHKVFAEGTKLIVIPSDKRLDADISPKPTIFLPSVAETNLHKTGTYLCLLEKFFPDVIRVYWKEKDGNTILDSQEGDTLKTNDTYMKFSWLTVPERAMGKEHRCIVKHENNKGGADQEIFFPSIKKVAVSTKPTTCSSADLVPRGSTTAPSAQLEKELQALEKENAQLEWELQALEKELAQLNDIFEAQKIEW
For B1, the “glycan array binding signal (z-score)” value [1] was -0.402, the “glycan array binding signal (z-score)” value [2] was -0.517 and the “glycan array binding signal (z-score)” value [3] was -0.549. The “glycan array binding signal (z-score)” value [4] was -0.566, the “glycan array binding signal (z-score)” value [5] was -0.522 and the “glycan array binding signal (z-score)” value [6] was -0.395. The “glycan array binding signal (z-score)” value [7] was -0.028, the “glycan array binding signal (z-score)” value [8] was 2.43 and the “glycan array binding signal (z-score)” value [9] was -0.566. For the same binder, the “glycan array binding signal (z-score)” value [10] was -0.268, the “glycan array binding signal (z-score)” value [11] was -0.187 and the “glycan array binding signal (z-score)” value [12] was -0.576. For the same binder, the “glycan array binding signal (z-score)” value [13] was 0.223, the “glycan array binding signal (z-score)” value [14] was -0.646 and the “glycan array binding signal (z-score)” value (Fuc(a1-3)GlcNAc) was -0.519. The “glycan array binding signal (z-score)” value [15] was -0.581, the “glycan array binding signal (z-score)” value [16] was -0.253 and the “glycan array binding signal (z-score)” value [17] was -0.52. For the same binder, the “glycan array binding signal (z-score)” value [18] was 2.3, the “glycan array binding signal (z-score)” value [19] was -0.531 and the “glycan array binding signal (z-score)” value [20] was -0.473. For the same binder, the “glycan array binding signal (z-score)” value [21] was 0.623, the “glycan array binding signal (z-score)” value [22] was -0.619 and the “glycan array binding signal (z-score)” value [23] was -0.071. For the same binder, the “glycan array binding signal (z-score)” value [24] was -0.473, the “glycan array binding signal (z-score)” value [25] was -0.478 and the “glycan array binding signal (z-score)” value [26] was 0.649. For the same binder, the “glycan array binding signal (z-score)” value (Fuc(a1-4)GlcNAc) was -0.607, the “glycan array binding signal (z-score)” value (Fuc(b1-3)GlcNAc) was 0.011 and the “glycan array binding signal (z-score)” value (Gal(a1-2)Gal) was -0.569.

Source: the supplement of paper PMC8728848
